Test results as given in the supplement of paper PMC10126150.
Sequences with one replicate were seen in a single cluster, so their values are uncertain.

Tested on: ATP
Assay: switch fluorescence ratio, 500 uM ATP over buffer (Cy3 cluster intensity, sum of 5 cycles each) (fold (ratio)); higher = stronger signal-on switching upon ATP binding; sequences stand for … in TCGTCGGCAGCGTCAGATGTGTATAAGAGACAGTTTTTTTTTTTTTTTTTTTTTTTTT…TC
Details: aptamer strand: ATP DNA aptamer (quencher-CACCTGGGGGAGTATTGCGGAGGAAGG + anchor), 100 nM annealed; ATP concentration: 500 uM; one replicate
Procedure, shortened: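 Exposure to 500 uM ATP lasted 15 min at 22 °C before imaging, and a selection-buffer image was taken beforehand, for Cy3-labelled switching-strand clusters on a modified Illumina MiSeq flow-cell annealed to 100 nM quencher-labelled ATP aptamer. Five buffer/ATP cycles were run with NaOH stripping and re-annealing between them. The fluorescence ratio per cluster is summed target-cycle over summed buffer-cycle Cy3 intensity, averaged per switch-domain sequence. Clusters outside 100-1000 RFU were excluded.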

Sequence | switch fluorescence ratio
ATGTTGTTTT | 0.96
AAGTGATCTG | 1.03
ATCGGCTTCC | 1.75
GACAAAAGCT | 1.06
CGTACGCAGT | 1.84
CACGAGCATC | 1.43
CAGCCAGGAA | 1.03
TACTAGGAA | 1
CCATTGGATT | 1.02
TCCGTGTATC | 1.28
TCGCCGTCAT | 1.02
CGCCCACCCT | 1.04
CTTTTCACTA | 0.982
GTGATGGAGT | 0.996
GGTCTAGGGG | 0.99
CCGGTTATTT | 1
CGCGGCCTAG | 0.981
GGAAGAGGCG | 0.932
CTGTCAGGCG | 0.981
ACCAGGTAA | 1.01
ATATGGTAGA | 1.04
ACAAATTTGC | 0.958
CTAGTGACAG | 0.986
GTGGAATATC | 1.09
TGTACATATT | 1.02
CAATGATCGT | 1.03

Sequence | switch fluorescence ratio
ACGCCGGAGG | 0.987
GTACGTGG | 1.03
TCTGGGTTGC | 0.987
AAGTTGACAG | 0.986
TGTGCTCAAC | 1.03
CACTAATGGA | 1
TATCTCGGAA | 1.11
TCGTTCCAAC | 1.03
ACGGACGGGT | 2.67
TGTTGGGTAT | 1
TGCAGTGTGT | 1.01
AACTTATGCG | 0.998
TCCCTTTCGG | 0.979
GGATAAGAAA | 0.964
ATAGAAGTCT | 0.998
CTGGATTAGT | 1.02
GTTCCAACCG | 1.06
TGTGAGGGGC | 0.999
AGGGTTGCGG | 0.978
AACAGGGCG | 1.06
GGCTAGGCGG | 0.983
GACCACAAAT | 1.05
ATCGGACTTA | 1.08
TTCTGGGACG | 1.11
AAGCGGCAT | 1.08
GCATCTCGGA | 1.06

Sequence | switch fluorescence ratio
CGCGAGCCGG | 0.936
ATGGGGAA | 0.985
AGTTCTTTCT | 1.02
AGAGTAACAC | 0.959
GAATGATCAA | 0.967
ACTCCTTATG | 1.06
AAGAATCCCC | 1.03
GGCCAAATTT | 1.01
TATCTGCATT | 1.17
CTACAGCGGT | 1.13
CTCGAGGTAT | 1.01
CGAAATTATC | 1.05
ATTAGCTTTA | 1.01
CGTTTCATTG | 1.13
ACATGAGAGC | 1
TAACTTCCA | 1.13
CTACGCCTCA | 1.8
CAAAAAAGC | 1.04
TAGGTTACTG | 0.953
GGGTTACTTA | 1.01
CACGAGAGTG | 1.02
CCCCTGCTCG | 1.05
TTAGTAAGCC | 1.05
TAATACTATC | 0.992
GAACGGG | 0.96
CCCAAATAGG | 1.04

Sequence | switch fluorescence ratio
TGACGGCTGT | 1.01
ACGGCTGGGT | 0.997
TTATGCCGC | 0.969
AGCCTGTAAT | 0.983
TTTGAATTG | 1.01
AGGCGCTATC | 1.25
ATCCAGACTG | 0.993
TTGCATCTTA | 0.997
GTCGACTACG | 0.972
ATTATCTCCG | 1.28
AAGGGCCTAG | 1.06
TGAGGAAGCG | 1.03
GCTGAAGTTA | 1.03
AATAAATTCT | 0.997
TACTGTAGAT | 1.12
TAGACGGAGT | 1.05
GGGAAACGAT | 1.05
TGGTCCGGCA | 0.991
GGGTCTCTAT | 0.953
TGACTTTCTG | 0.961
CACTCAGTTT | 1.03
GTGTACTCA | 1.01
GTTAATTTCT | 1.03
AGTAGTGTTC | 0.985
CTACCCGAGC | 1.15
TTAACGGCCA | 1.01

Sequence | switch fluorescence ratio
CGTGTTGATC | 1.01
CGCGCGGTCA | 0.973
CTCGTCTGAC | 1.05
TTACAGCCCG | 1.06
TTTGTCCATT | 1.01
CCACACACGA | 1.5
CAGGTGGTAG | 0.99
TCCAGCATG | 1.04
TTAATTAGAG | 0.982
GAAAAGGCAT | 0.992
AATTCACATA | 1.04
CCCTCGGGCA | 1.39
AGGTAACTAC | 1.01
AAGATACTGT | 0.999
AGAGTGAAAG | 0.974
GTAGATGTAC | 1.14
CGGGCCCTTG | 1
GTTTAAGCTA | 1.07
ATACAGGACG | 1.1
AGAAGCTCGT | 1.01
GGTATGCACT | 0.993
GATGGGGACG | 0.907
GGTATATTTC | 1.01
GTAACGCGGT | 1.04
CGTATCAGGA | 0.989
AAGGACGTTA | 1.07

Sequence | switch fluorescence ratio
AGCAGTAGAT | 1.07
TGTCGTGAAG | 1.06
GATCGGGACC | 0.979
CTGAGATTTA | 1.03
GATCTTGCAT | 0.972
TTCGTTCAAC | 1.03
CCGATGGGGC | 1.1
TTGGGGCGTA | 0.958
AACCGTGAGG | 0.957
ACTTAACGTG | 1.06
CCTCGGTGGC | 1.14
AGCGAGTCG | 0.999
CAACTGTAG | 0.954
CAGGCCGAAC | 1.41
TCGGGTAATG | 0.998
AATAAATAGT | 1.02
GTGTCACATG | 1.02
TCGGGAAACG | 0.992
ATAAGCGTCT | 1.03
TGCTACTGCG | 1.01
AATCCGCGCC | 3.69
TGGGGAGGC | 1.06
TGGAAGCGCG | 1.04
ACTACGCCTT | 2.11
TGAGGTTGAA | 0.952
ATGTCGGGTC | 1.01

Sequence | switch fluorescence ratio
ACTTTCCGTC | 1.16
GAGCCTAGCG | 1.04
GGTAGTAATC | 1.15
CTAGCCCTGA | 0.96
ACCGGCTTTA | 1
GCTTCGATTC | 1.05
CGGTACTGG | 1.03
CTTACAACGA | 1.02
CGAATTTCCT | 1.03
ATGCAGTGGA | 0.996
TGTAGCTGT | 1.01
CCGGAGTCGT | 2.11
TGCTAGTTA | 1.01
GGTCATCGGA | 0.952
CGGTAAACCA | 0.99
TAGTAAATTT | 1.01
TTGGCTAGTG | 0.968
GAGGTCGCG | 1.01
GACTGCGCTG | 0.96
TCATAGATAC | 1.25
CTTCTGTTAA | 1.03
CACCCGCGTT | 1.85
GGGGAGGCTC | 1.07
GTAGAGGTTT | 0.971
TGGGTCGTCT | 1.05
TATAATGCTA | 1.02

Sequence | switch fluorescence ratio
ATCATAGTCT | 0.965
TGTGCTGAGT | 0.985
CTGGAGCTGG | 1.59
TAAAACAAG | 0.996
GTGTATGTCC | 0.992
AAAGAGGAGC | 0.996
TCCCGGGGAT | 1.06
AACCTGTGCT | 1.09
GTTCGAAGGA | 1
GATGGTGATA | 0.986
AGTCGATTTG | 0.972
CGATTGCACT | 1.09
ATGATTCCTC | 1.13
CAACAAAACT | 1.01
GGTCGTCCAA | 1.02
CATGAAGCAG | 1.13
CTACTACCCC | 1.35
GAACGAGCCA | 0.99
GGGCAGTGAC | 1.01
